Counter-ions that a name gives are not always drawn. ± gives the standard deviation of the averaged measurements. The full ranking holds about 2,000 compounds; the median of “cell viability relative to DMSO control (compound alone)” is about 0.98, and the lowest 2% start at about 0.23. This is one part of the list.
Each compound was assayed on PDC-DUC18828 (assay: cell viability relative to DMSO control (compound alone) (fraction); PDC-DUC18828 is a patient-derived cholangiocarcinoma cell line; higher = less growth inhibition). Details: 1 µM; 72 h.
Description: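 Selleck Bioactive library screen in the patient-derived FGFR2-G3BP2 fusion-positive ICC cell line PDC-DUC18828 (500 cells/well). Each compound was tested at 1 uM alone, in triplicate, for 72 h. Viability was read by CellTiter-Glo and normalised to plate DMSO controls.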

| SMILES | cell viability |
| --- | --- |
| C=CC(=O)Nc1ccc2ncnc(Nc3ccc(OCc4cccc(F)c4)c(Cl)c3)c2c1 | 0.804 ± 0.029 |
| Cc1nc(N)sc1-c1ccnc(Nc2ccc(N3CCOCC3)cc2)n1 | 0.798 ± 0.081 |
| C[C@]12CC[C@@H]3c4ccc(O)cc4CC[C@H]3[C@@H]1C[C@@H](O)[C@@H]2O [Estriol] | 0.905 ± 0.014 |
| C[C@@H]1CN(CC(=O)Nc2ccc3c(c2)Cc2cccc(-c4cc(=O)cc(N5CCOCC5)o4)c2S3)C[C@H](C)O1 | 0.95 ± 0.05 |
| CCC[C@H](NC(=O)[C@@H]1[C@H]2CCC[C@H]2CN1C(=O)[C@@H](NC(=O)[C@@H](NC(=O)c1cnccn1)C1CCCCC1)C(C)(C)C)C(=O)C(=O)NC1CC1 [Telaprevir (VX-950)] | 1.06 ± 0.032 |
| CCc1cccc2c3c([nH]c12)C(CC)(CC(=O)O)OCC3 (stereo unspecified) [Etodolac] | 0.961 ± 0.044 |
| Cc1noc(NS(=O)(=O)c2ccc(N)cc2)c1C [Sulfisoxazole] | 0.986 ± 0.028 |
| CCOC(=O)[C@H](CCc1ccccc1)N[C@@H](C)C(=O)N1CCC[C@H]1C(=O)O [Enalapril Maleate] | 1.04 ± 0.031 |
| CNC(=O)[C@H](Cc1ccccc1)NC(=O)[C@H](CC(C)C)[C@H](CSc1cccs1)C(=O)NO [Batimastat (BB-94)] | 0.998 ± 0.028 |
| CC[C@@H]1/C=C(\C)C[C@H](C)C[C@H](OC)[C@H]2O[C@@](O)(C(=O)C(=O)N3CCCC[C@H]3C(=O)O[C@H](/C(C)=C/[C@@H]3CC[C@H](Cl)[C@H](OC)C3)[C@H](C)[C@@H](O)CC1=O)[C@H](C)C[C@@H]2OC [Pimecrolimus] | 1.03 ± 0.04 |
| Cc1cc(Nc2nc(N[C@@H](C)c3ncc(F)cn3)ncc2Cl)[nH]n1 | 0.577 ± 0.047 |
| COC[C@H](NC(=O)c1cnc(C)s1)C(=O)N[C@@H](COC)C(=O)N[C@@H](Cc1ccccc1)C(=O)[C@@]1(C)CO1 [Oprozomib (ONX 0912)] | 0.0181 ± 0.0015 |
| CCCCC(=O)N(Cc1ccc(-c2ccccc2-c2nnn[nH]2)cc1)[C@H](C(=O)O)C(C)C.CCOC(=O)[C@H](C)C[C@@H](Cc1ccc(-c2ccccc2)cc1)NC(=O)CCC(=O)O | 0.926 ± 0.025 |
| OC[C@H]1O[C@@H](O[C@@H]2[C@@H](CO)OC(O)(CO)[C@H]2O)[C@H](O)[C@@H](O)[C@H]1O (mixture of isomers) [Lactulose] | 1.02 ± 0.042 |
| O=C(O)CC1CC(c2ccccc2)=NO1 (stereo unspecified) | 0.981 ± 0.086 |
| CN(C)[C@@H]1C(O)=C(C(N)=O)C(=O)[C@@]2(O)C(O)=C3C(=O)c4c(O)ccc(Cl)c4[C@@H](O)[C@H]3C[C@@H]12 [Demeclocycline HCl] | 1.01 ± 0.041 |
| CCN(c1cc(-c2ccc(CN3CCOCC3)cc2)cc(C(=O)NCc2c(C)cc(C)[nH]c2=O)c1C)C1CCOCC1 | 0.901 ± 0.049 |
| Cn1c([N+](=O)[O-])cnc1COC(N)=O [Ronidazole] | 1.012 ± 0.0073 |
| CN(CCOc1ccc(CC2SC(=O)NC2=O)cc1)c1ccccn1 (stereo unspecified) [Rosiglitazone] | 0.977 ± 0.011 |
| CN(CCOc1ccc(CC2SC(=O)NC2=O)cc1)c1ccccn1 (stereo unspecified) [Rosiglitazone HCl] | 1.05 ± 0.073 |
| CN(CCOc1ccc(CC2SC(=O)NC2=O)cc1)c1ccccn1 (stereo unspecified) [Rosiglitazone maleate] | 1.046 ± 0.0083 |
| COc1ccc(C[C@@H]2c3cc(OC)c(OC)cc3CC[N@+]2(C)CCC(=O)OCCCCCOC(=O)CC[N@@+]2(C)CCc3cc(OC)c(OC)cc3[C@H]2Cc2ccc(OC)c(OC)c2)cc1OC [Cisatracurium Besylate] | 1.07 ± 0.028 |
| CCOC(=O)c1c(C)n(C)c2ccc(O)cc12 [Mecarbinate] | 1.06 ± 0.053 |

| SMILES | cell viability |
| --- | --- |
| Fc1cc(-c2cccc3ncc(-c4cnn(C5CCNCC5)c4)nc23)cc(F)c1CN1CCOCC1 | 1.01 ± 0.041 |
| CC(N)C12CC3CC(CC(C3)C1)C2 (stereo unspecified) [Rimantadine] | 0.987 ± 0.051 |
| C[C@H](Oc1cc(-c2cnn(C3CCNCC3)c2)cnc1N)c1c(Cl)ccc(F)c1Cl [(S)-crizotinib] | 0.899 ± 0.019 |
| Brc1c(NC2=NCCN2)ccc2nccnc12 [Brimonidine Tartrate] | 0.957 ± 0.041 |
| CN(C)CCOC(=O)COc1ccc(Cl)cc1 [Meclofenoxate (Centrophenoxine) HCl] | 0.992 ± 0.067 |
| NCc1c[nH]c(=S)n1[C@@H]1CCc2c(F)cc(F)cc2C1 [(R)-Nepicastat HCl] | 0.9045 ± 0.0088 |
| Cc1ccc2c(Cl)cc(Cl)c(O)c2n1 [Chlorquinaldol] | 0.943 ± 0.057 |
| N=C(N)N/N=C/c1c(Cl)cccc1Cl [Guanabenz Acetate] | 1.07 ± 0.041 |
| CCNC(=O)C#Cc1ccc2c(C(=Nc3ccc(CN(C)C)cc3)c3ccccc3)c(O)[nH]c2c1 | 0.403 ± 0.024 |
| CCCCOc1cc(C(=O)NCCN(CC)CC)c2ccccc2n1 [Dibucaine HCl] | 1.02 ± 0.024 |
| CCOC(=O)c1ccc(NC(=O)O[C@H]2[C@H](OC(=O)Nc3ccc4c(c3)OCO4)[C@@H](OC(=O)Nc3ccc4c(c3)OCO4)[C@@H](OC)O[C@@H]2CO)cc1 | 0.935 ± 0.083 |
| O=C1CCc2cc(OCCCCc3nnnn3C3CCCCC3)ccc2N1 [Cilostazol] | 1.05 ± 0.039 |
| N#C[C@@H]1C[C@@H]2C[C@@H]2N1C(=O)[C@@H](N)C12CC3CC(CC(O)(C3)C1)C2 [Saxagliptin] | 1.02 ± 0.034 |
| CCS(=O)(=O)CCn1c([N+](=O)[O-])cnc1C [Tinidazole] | 1.08 ± 0.053 |
| COc1cc(Nc2nc3ccccc3nc2NS(=O)(=O)c2ccc(NC(=O)c3ccc(C)c(OC)c3)cc2)cc(OC)c1 | 0.925 ± 0.076 |
| CCC1=C(C)CN(C(=O)NCCc2ccc(S(=O)(=O)NC(=O)N[C@H]3CC[C@H](C)CC3)cc2)C1=O [Glimepiride] | 1.07 ± 0.022 |
| Cc1cc(C(O)=C2C(=O)C(=O)N(CCCN3CCOCC3)C2c2ccncc2)ccc1OCc1ccccc1 (stereo unspecified) | 1.05 ± 0.054 |
| Nc1ncnc2c1c(-c1cnc3[nH]ccc3c1)nn2C1CCCC1 | 0.363 ± 0.017 |
| CC(C)NCC(O)COc1cccc2ccccc12 (stereo unspecified) [Propranolol HCl] | 1.07 ± 0.016 |
| Cc1nc(NC(=O)N2CCC[C@H]2C(N)=O)sc1-c1ccnc(C(C)(C)C(F)(F)F)c1 | 0.967 ± 0.045 |
| O=C(/C=C\n1cnc(-c2cc(C(F)(F)F)cc(C(F)(F)F)c2)n1)NNc1cnccn1 | 0.508 ± 0.021 |
| CN(C)Cc1ccc(-c2nc3cccc4c3n2CCNC4=O)cc1 | 1.05 ± 0.046 |
| Cc1[nH]c(/C=C2\C(=O)Nc3ccc(S(=O)(=O)N(C)c4cccc(Cl)c4)cc32)c(C)c1C(=O)N1CCN(C)CC1 | 0.964 ± 0.1 |

Source: the supplement of paper PMC9588766
